Measurements published in PubChem BioAssay AID686978 (National Center for Advancing Translational Sciences (NCATS), 2013).
Among all 420,000 compounds or so, about 64,000 (15%) were called active. The shares of active, inactive and inconclusive entries below differ from those in the screen. Calls follow the shape of the dose curve; as a rule, active = well fitted inhibition curve with a large enough effect; inconclusive = small, poorly fitted or top-dose-only effect; inactive = flat fitted curve, though single readings scatter. No potency is given beside an inconclusive call; the fits are too rough.

assay: qHTS for Inhibitors of human tyrosyl-DNA phosphodiesterase 1 (TDP1): qHTS in cells in absence of CPT; conditions: DT40 Tdp1-/- hTDP1 cells, no CPT, ATP luminescence, 48 h; activity change, negative = growth inhibition: at 46.2 µM (top of the series) unless noted; also: nearly all actives have a fitted effect of over 55% in size
In short: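 Compound effects on proliferation are scored in DT40 Tdp1-/-;hTDP1 cells in the absence of CPT. ATP levels (CellTiter-Glo luminescence) are recorded after a ≥48 hr, 37 °C incubation.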
% is scaled to controls: 0 for no effect and ±100 for the full control effect; potency is read from the fitted curve at half-maximal effect; tags tell the direction and shape of the fitted curve.

Row | Compound | activity change, negative = growth inhibition | Potency
1 | COc1ccc(C(=O)CSc2nnc(-c3ccccc3)o2)cc1 | inconclusive: -36.1% [inhibitor] | –
2 | CN(C(=O)c1cccc(C(F)(F)F)c1)C1CCCc2ccccc21 (configuration not stated) | – | inconclusive [inhibitor, partial curve]
3 | CCCC(=O)Nc1ccc(C(=O)Nc2nnc(COC)s2)cc1 | inconclusive: -31% [inhibitor] | –
4 | CCCCn1cc(S(=O)(=O)c2ccc(OCC)cc2)c(=O)c2cc(OC)c(OC)cc21 | – | inconclusive [inhibitor, single point]
5 | C[C@H]1CN([C@@H](C)CO)C(=O)CCCn2nncc2CO[C@H]1CN(C)C(=O)NC1CCCCC1 | inactive: 1.1% | –
6 | Cc1ccc(Cl)cc1N1CCN(Cc2nnnn2Cc2ccco2)CC1 | – | inconclusive [inhibitor, single point]
7 | CCOC(=O)CSc1nnnn1-c1cc(OC)ccc1OC | inactive: -12% | –
8 | CCOc1ccc(-n2c(O)c(/C=N/c3ccnn3Cc3ccncc3)c3ccccc3c2=O)cc1 | inactive: 3.46% | –
9 | Cc1ccc(C(=O)Nc2cccc(NC(=O)c3ccc(C)cc3)n2)cc1 | – | inconclusive [inhibitor, partial curve]
10 | O=C(NC(c1ccccc1)c1ccccc1)c1ccc(S(=O)(=O)C(F)F)cc1 | inactive: -1.93% | –
11 | CC1CCN(C(=O)CN2C(=O)NC(C)(c3ccc4ccccc4c3)C2=O)CC1 (configuration not stated) | – | active: 16.4 µM
12 | CC(C)NC(=O)C1(C)CCCCN1Cc1cccc(C(F)(F)F)c1 (configuration not stated) | – | inconclusive [inhibitor, single point]
13 | O=C(COC(=O)Cc1ccccc1F)Nc1ccc(SC(F)F)cc1 | inactive: -15% | –
14 | CCOc1c(Br)cc(/C=C(\C#N)C(=O)NC2CC2)cc1OC | – | inconclusive [inhibitor, single point]
15 | CCc1sc(C(C2C(=O)CC(C)(C)CC2=O)C2C(=O)CC(C)(C)CC2=O)cc1[N+](=O)[O-] | – | active: 5.17 µM
16 | Cc1onc(-c2ccccc2)c1C(=O)Nc1ccon1 | inactive: 0.117% | –
17 | CN(CCNC(=O)c1cccc(N2CCCC2=O)c1)Cc1ccccc1 | inactive: -7.48% | –
18 | COc1ccc(Cl)cc1NC(=O)Nc1cccc([N+](=O)[O-])c1C | – | active: 23.1 µM
19 | COCCN1Cc2cccc(C(=O)Nc3ccc(C)c(F)c3)c2C1=O | – | inconclusive [inhibitor, single point]
20 | c1ccc(C2NCCc3ccccc32)cc1 (configuration not stated) | – | active: 25.9 µM
21 | Cn1c(=O)c2cc3c(nc2n(C)c1=O)CC(c1ccccc1)CC3=O (configuration not stated) | – | inconclusive [inhibitor, full curve]
22 | COc1ccc(Nc2nc3c(S(=O)(=O)c4ccccc4)nnn3c3ccc(Cl)cc23)c(OC)c1 | inactive: -7.89% | –
23 | COc1cc(/C=N/n2c(-c3ccccc3)n[nH]c2=S)cc(OC)c1OC | – | inconclusive [inhibitor, partial curve]
24 | CCOC(=O)c1cc(-c2ccc(F)cc2)n(CC(=O)Nc2nccs2)c1C | – | inconclusive [inhibitor, single point]

Row | Compound | activity change, negative = growth inhibition | Potency
25 | Fc1ccc(-c2cc(-c3nc(-c4ccccc4)no3)[nH]n2)cc1 | inactive: -27.2% | –
26 | CC1(C)CC(=O)C/C(=N/Nc2nc3ccccc3s2)C1 | – | inconclusive [inhibitor, single point]
27 | NN=C(c1cccc([N+](=O)[O-])c1)c1cccc([N+](=O)[O-])c1 | – | inconclusive [inhibitor, partial curve]
28 | COc1ccc(N2CCN(CCNC(=O)CCCn3c(=O)[nH]c4cc(Cl)ccc4c3=O)CC2)cc1 | – | inconclusive [inhibitor, single point]
29 | CN1C(=O)[C@H]2[C@@H](C3CC3)N3C(=O)CN(CC4CC4)C(=O)[C@@]3(C)[C@H]2C1=O | inactive: -4.52% | –
30 | COCCn1c(=O)[nH]c(=O)c2c1nc(-c1ccc(-c3ccc(Cl)cc3[N+](=O)[O-])o1)n2Cc1ccccc1 | – | active: 23.1 µM
31 | Cc1cccc(N2CCN(CCNC(=O)c3cc4c(s3)CS(=O)(=O)C4)CC2)c1C | – | inconclusive [inhibitor, single point]
32 | CC(C)C(C(=O)NCC1CCCO1)N(C(=O)CNS(=O)(=O)c1ccc(F)cc1)C1CCCCC1 (configuration not stated) | inactive: -18.8% | –
33 | COc1cccc(-c2ccc(NC(=O)C3CCCN(Cc4cnn(C)c4)C3)cc2)c1 (configuration not stated) | – | inconclusive [inhibitor, single point]
34 | OCC1CCCCN1C(=S)Nc1cccc(Cl)c1 (configuration not stated) | inactive: -11% | –
35 | COC(=O)NCc1ccc(Cl)c(Cl)c1 | inactive: -16.3% | –
36 | Cc1ccc(NC(=O)C(C)N=C2NS(=O)(=O)c3ccccc32)cc1F (configuration not stated) | – | inconclusive [inhibitor, partial curve]
37 | Cc1cc(C(=O)COc2cccnc2[N+](=O)[O-])c(C)n1-c1ccccc1 | – | active: 20.6 µM
38 | COC(=O)CCN(C)CCC(=O)OC | – | inconclusive [inhibitor, full curve, poor fit]
39 | CCOC(=O)c1ccc(NC(=S)N(CCCN2CCCCCC2)Cc2ccco2)cc1 | – | inconclusive [inhibitor, single point]
40 | CS(=O)(=O)c1ccc2nc(NC(=O)c3cc(-c4ccccc4)nn3-c3ccccc3)sc2c1 | – | inconclusive [inhibitor, single point]
41 | CC(C)c1ccc(NC(=O)c2cn(C3CCCCC3)c(=O)c3c2c2ccccc2n3C)cc1 | inactive: -23.8% | –
42 | CC(C)(C)NC[C@H](O)COc1cccc2c1CCCC2=O | – | inactive
43 | COc1ccc(C(=O)Nc2cccc(-c3nc4ncccc4o3)c2C)cc1 | – | inconclusive [inhibitor, single point]
44 | CCOc1ccc(C(=O)Nc2ccc(Cl)cn2)cc1Cl | inconclusive: -30.3% [inhibitor] | –
45 | COc1ccc(NC(=O)c2c(C(F)(F)F)nn(C)c2SCc2ccccc2)cc1 | – | inconclusive [inhibitor, single point]
46 | COC(=O)CCCC(=O)N(C)CC1CCCN(CCc2ccccc2C)C1 (configuration not stated) | – | inconclusive [inhibitor, full curve, poor fit]
47 | Fc1ccc(Sc2nc(-c3ccccc3)nnc2C(F)(F)F)cc1 | – | active: 13 µM
48 | CCCCOc1ccc(C(=O)NCC(=O)N(C)CC(=O)Nc2ccc(N3CCOCC3)cc2)cc1 | – | inconclusive [inhibitor, single point]

Row | Compound | activity change, negative = growth inhibition | Potency
49 | Cc1ccnc(SCCn2c(N3CCC(C)CC3)nc3c2c(=O)n(C)c(=O)n3C)n1 | – | active: 23.1 µM
50 | Cc1ccc(Nc2nc3ccccc3s2)cc1 | – | inconclusive [inhibitor, single point]
51 | CCc1nc2ccc(C(=O)Nc3ccc(C(=O)N(C)C)cc3)cn2c1N(C)CCCc1ccccc1 | – | inconclusive [inhibitor, single point]
52 | O=C(Nc1ccccc1)N1N=C(c2cccs2)CC1c1cccs1 (configuration not stated) | – | inconclusive [inhibitor, single point]
53 | COc1ccc(OC)c(NC(=O)COC(=O)c2c(C)noc2C)c1 | inactive: 6.63% | –
54 | Cc1ccccc1S(=O)(=O)N1C[C@H]2CON(C)[C@H]2C[C@H]1c1cccc(Br)c1 | – | inconclusive [inhibitor, single point]
55 | CCOC(=O)c1cccc(NC(=O)c2ccc(NC(=O)c3ccco3)cc2)c1 | – | inconclusive [inhibitor, full curve]
56 | CCCC(=O)Nc1ccc2nc(SCC(=O)N3CCCC3)sc2c1 | – | inconclusive [inhibitor, single point]
57 | CC(C(=O)N/N=C/c1ccc(N(C)C)c(Br)c1)N(c1ccccc1)S(C)(=O)=O (configuration not stated) | – | active: 9.2 µM
58 | CCOC(=O)c1cncc(NC(=O)c2ccccc2)c1 | inactive: -26.3% | –
59 | COc1ccc(NC(=O)N/C=C/c2ccc(Cl)cc2)cc1 | – | inconclusive [inhibitor, single point]
60 | Cc1ccc2c(c1)c1c(c(=O)n(-c3cccc(Cl)c3)c(=O)n1CC(=O)c1ccc(Cl)cc1)n2C | inactive: -0.565% | –
61 | CC(C)C(=O)Nc1cccc(C(=O)N2CCCCC2C)c1 (configuration not stated) | – | active: 14.6 µM
62 | CCc1ccc(S(=O)(=O)Nc2cccc(-c3ccc4nnc(C)n4n3)c2)s1 | – | active: 16.4 µM
63 | CC(C)Cn1cc(NC(=O)NCc2ccccc2)c2ccccc2c1=O | – | inconclusive [inhibitor, single point]
64 | COc1cc(/C=C/C(=O)O)cc(S(=O)(=O)Nc2cc(Cl)c(Cl)cc2Cl)c1OC | – | inconclusive [inhibitor, full curve]
65 | O=C1CCCC/C=C\C[C@H](CC(=O)N(CCO)Cc2ccccc2)C(=O)NCCO1 | inactive: -2.94% | –
66 | CCc1nc2c(OCC(=O)C(C)(C)C)cccn2c1N(C=O)Cc1ccccc1 | inactive: -5.6% | –
67 | Cc1nc2nc(SCC(=O)Nc3cccc(Cl)c3)nn2c(C)c1Cc1ccccc1 | – | inconclusive [inhibitor, single point]
68 | COc1ccccc1C1=NS(=O)(=O)N(C)C(C(=O)Nc2cc(OC)c(OC)c(OC)c2)=C1 | – | inconclusive [inhibitor, single point]
69 | CC1(C)CC(=O)C=C(Nc2cccc(C(F)(F)F)c2)C1 | – | inconclusive [inhibitor, single point]
70 | COCOCCn1cc(CN2CCS(=O)(=O)N(Cc3ccc(-c4ccc(C)cc4)cc3)C(C(C)C)C2=O)nn1 (configuration not stated) | – | inconclusive [inhibitor, single point]
71 | Cc1nc2ccc(NC(=O)c3cccs3)cc2c(=O)n1Cc1ccc(Cl)cc1 | – | inconclusive [inhibitor, single point]
72 | Cc1cc(C)c(S(=O)(=O)N2CCCc3ccccc32)c(C)c1 | – | inconclusive [inhibitor, single point]
